# Measured values: the supplement of paper PMC11417369
# The list shows a part of the results.
# Tested on: PF3D7_0420300 AP2 domain 1 (GST-tagged)
# Assay: gcPBM binding intensity (ln(normalized median fluorescence intensity)); higher = stronger DNA binding
# In short: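 For binding intensity, the highest Masliner-normalised natural-log median intensity across replicate spots of either probe orientation was taken. Protein bound to the array was stained with Alexa488 anti-GST antibody and scanned at 488 nm. The protein, GST-tagged P. falciparum DNA-binding domains from E. coli at about 25 μg on average, had been applied for 1 h to an Agilent 4 × 180k array of primer-extended double-stranded 36-bp intergenic genomic probes and negative controls.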
row,Sequence,gcPBM binding intensity (ln)
1,GTTTACTAATATTGCACACGAATATGAAAAAGAGAA [CACACA_site2897],9.45
2,GTGTTAACTATTATGAGTACTTATGTATTAATTCAT [XGTACX_site7767],9.25
3,TTGCTTATTAAATGGGGTACATTATATATATATATA [XGTACX_site2515],9.49
4,TAAATTTGTGGGATTTCACACAGGTTTATTTACATT [CACACA_site5455],9.26
5,ATGTAGGTTAATTATTGTACGTAGGGGGTGTATATT [XGTACX_site3973],10.2
6,TTCAGAGAATAAAAATGTACATATAATATTTTAAAA [XGTACX_site577],8.88
7,CTCTTGTCATTTTGCACACACACATGTATAGGTTAT [CACACA_site3057],10.2
8,TTTACATCAACCTTTTCACACATTCATATACAGATA [CACACA_site6152],9.32
9,TGTGTTTATACGTTTTGTACATATTTTTATTTTGTA [XGTACX_site6425],9.6
10,TCATTAAAGGAAAAATGTACGTATAAATAAATATAT [XGTACX_site2587],9.32
11,TTCAAAAAATAAAATAATAATATATATATAAATATA [XGTACX_negctrl_site84],9.02
12,TTTTTTATATTTAAACTTCACATGGTTTTCATTTAT [XGTACX_negctrl_site291],9.34
13,ATACATATATATATATGTACACATAAACATGAGTGA [XGTACX_site3200],9.29
14,TAATGGAAACCATTTATTTTCTGCAATATATTTTTT [CACACA_negctrl_site1653],9.03
15,AAACAAAATATGGTTCATGAGCAAAAGTTTATTTTG [XGTACX_negctrl_site531],9.27
16,ATTTATTTATACAAAGTGCAATATTTTGTTAAAGTC [GTGCAC_site9618],9.3
17,AATGTAAAATATAAATGTACATATATATATATATAT [XGTACX_site5071],9.16
18,CTCTTTTCTTATAATACACACAGTAATATATATATA [CACACA_site1520],9.53
19,TATAAAATACATTTATAATATATATATATATTTTTT [TGCATGCA_negctrl_site435],8.99
20,ATATGAAATATATAAATATGTTTATATATATATATA [GTGCAC_negctrl_site94],8.95
21,TACCTAATATGTTATACACACATTATAAGTACATAT [CACACA_site7206],9.6
22,AATATAACTTAGAATTGTACATAAAAAAAAATATAT [XGTACX_site3313],9.35
23,TAAGAAATAAATAGTACACACATAGACACACGCACA [CACACA_site6821],9.92

row,Sequence,gcPBM binding intensity (ln)
1,ATACATAAAATTAAAACACACATTTTATTAAATACG [CACACA_site2167],9.48
2,AGTTATATGGTTAATACACACAACAAATGTTTCTTC [CACACA_site6642],9.54
3,GTGTGATGGTACAATATACACACTTAAAAAAAAAAA [CACACA_site8769],9.14
4,AAAAAATATATTTGCACACTCAAAAAAAAAAAAAAA [CACACA_site859],9.08
5,GATCTATACATGGGGACACACATCACTCTATATTTT [CACACA_site3408],9.63
6,ATTTGTTATATATTCTTTTATGTTAATAATTCGAAT [CACACA_negctrl_site378],9.29
7,TATGAATAAAAAAGAAGTACAAATTATATGAACGCA [XGTACX_site3018],9.53
8,AAAAAATACAAACACACACACACACCCATATATATA [CACACA_site3560],10.2
9,CATACTGTTATAAAATGTACGCATATACACACACAT [XGTACX_site7256],9.89
10,TTTTGTTTAATATTCACACATATATATTTTTTATTT [CACACA_site5496],9.41
11,CTTTTTATTTAGGAGGTGCATGTAATACGGAACATA,9.1
12,AGAAACATATGGTAGTGTACTGTAAATTTATTCTTT [XGTACX_site8602],9.33
13,ATTTTGTGTAGTGATGCATGTTATATATATATTTGA [TGCATGCA_site422],9.55
14,TTTTATCAAATATTTATTTTATACATAAATATTTAT [XGTACX_negctrl_site528],9.04
15,ATAACATCAGTATTATGTACATATGTAGGTAAATAA [XGTACX_site7066],9.34
16,TTTTATTGTTTTTTTTTTTTTTCTTTTTTTTTTTTT [CACACA_negctrl_site1094],9.42
17,CGTTATTATACACATACACACAGGAATAAAAAATTA [CACACA_site7373],9.6
18,TTCTGACTTGTTATAATTTGTATATCCGAAAAAATT [TGCATGCA_negctrl_site456],9.16
19,TACATATTTTGTATATATTATTTATTTTATTAGTTT [XGTACX_negctrl_site85],9.23
20,ACTATTATTAAAAATTGTACTTTCTATAAATTTTTT [XGTACX_site7825],9.15
21,TTTTTTTTTTGTTGAGTGCAATTATTTGTAAGAAAA,8.81
22,AAATTAATATATAAAAGTACCCATATATTTAATATA [XGTACX_site3551],9.08
23,TCTCCACCTCTCTTGGTGCGTTATACCCTCGAGGCT,9.12

row,Sequence,gcPBM binding intensity (ln)
1,TATAACAAAATATTCACACATATAAGTAAATAAAGG [CACACA_site5777],9.51
2,AGTTTGTTTTTTTTTTTTTTTTCCTGTCACAAACAA [CACACA_negctrl_site1093],9.44
3,GTACGTTACATAAATGTGCACATATTATATGCGAAG,9.23
4,GTCATATATATATGTACACACATATATATATTTATA [CACACA_site1459],9.5
5,TCAAAGCACCCATACACACACATATATATATATATA [CACACA_site4317],9.67
6,AAGACTGCACTTTAAGCACACAAATATATTTTTTTT [CACACA_site8337],9.2
7,AAGAAAAAAATTTAATTAAATGAAATTTTTGAATTA [TGCATGCA_negctrl_site25],8.81
8,ATTATTATATTTATATGTACATAGAAAAAATTAAAT [XGTACX_site2058],9.15
9,AAAAATAAAGGATATACACACTAATTATATATATAT [CACACA_site5550],9.51
10,AAAGTGGCCATATATTTTTTTTTTTTTTTCCTTATT [CACACA_negctrl_site485],9.11
11,TAGTATCCAAGAAAAAGTACTTATTTTAATTTTTTA [XGTACX_site6243],8.99
12,TCAGATATATATATATAAATATATATTTTGAAATGT [CACACA_negctrl_site686],9.07
13,TCATTTAAGTAGACGCGTACGGAAATTACGAATCCT [XGTACX_site144],9.15
14,TTTCTTCTTCTATTGTGTACGTAAAAAAAAAAAAAA [XGTACX_site772],8.78
15,TTTGAAATATTAAATGCATGTTAAAACATAAAAATG [TGCATGCA_site680],8.94
16,GGTAATTTCCTTTTTTGTACTCATAGAAGGATAATA [XGTACX_site89],9.19
17,TGATAAAATGGGGAAATTCATTATATCATATCTTGG [CACACA_negctrl_site789],9.08
18,TTGGATAAAAAATATGTACACACATATAGATATCTA [CACACA_site8862],9.37
19,ATTATATTAAAATACACACCCAAATATTAAAAAGAT [CACACA_site5613],9.77
20,ACATTTTTTTCATATCGTACATATTATAATATTTTC [XGTACX_site6524],9.49
21,ACAAGTCAGGCAAAAACATGCATTATTTGAACATTA [TGCATGCA_site864],9.15
22,AAAAAAAAAAAAGGAGGTACACAATTTTATATATGC [XGTACX_site5296],9.29
23,GAGCATTACCCATATACACACATATATATAAACCTA [CACACA_site2737],9.63

row,Sequence,gcPBM binding intensity (ln)
1,TAAAACAACAAAGAAAATGAAAAAGTAAAAACATAT [CACACA_negctrl_site1049],9.78
2,GTACGATAAAAAATTGGACAAAAAAAAAAAAAAAAT [XGTACX_negctrl_site158],9.26
3,ATTTCATAAATTAAACGTACATAATACACACACATG [XGTACX_site4155],9.93
4,TTTTGCAATAATGTTGCACACTAAATAGTCATCTAT [CACACA_site4304],9.19
5,TTTTGTTATTTTTTAGTGCATATAAAGGTTGTTAAG,9.2
6,ACTGTAAAAGGATTTACACACATATTTACATTTACA [CACACA_site519],9.64
7,TACCAATGCATAACGGTGCAAAAAAATAAGGAATAA,9.36
8,ATGCATATAACTACGTGTACAAATATACACAAATAC [XGTACX_site8811],9.5
9,ATATATATATTTGTATGTACATATATATATTCGTAT [XGTACX_site1640],9.34
10,ACCCATAAAAAGGATACACACACACCCACCCATATA [CACACA_site8205],10.4
11,TTTCCTTATTAAAACACACAAATACATTATTTAATC [CACACA_site7080],9.21
12,TAATTTATGACACGCGCACACATATATATATAGTAA [CACACA_site4249],9.47
13,AAAAATTATGGACACACACACATATATATATATATT [CACACA_site4717],9.99
14,AATAAAATAAAATACACACATACATACATACAAATG [CACACA_site2438],10.2
15,GGTATACGCAAGTATACACACATATATATATATATA [CACACA_site3240],9.36
16,AAAAACTAATCTTTAACATGCAACCGTTTATACATA [TGCATGCA_site363],9.23
17,TGAGTTACATACTAATGTACACAACAAAAAAAAAAA [XGTACX_site2390],9.12
18,TTTTTTTGAACATATACACACTCTAAACTTATACAT [CACACA_site3917],9.37
19,AAAGGTTTATATGATACACACATAAGTGATCAGGTT [CACACA_site190],9.47
20,TTACTTAAATATAAGTGTCCTCAAAAAAAAAAAAAA [XGTACX_site460],8.78
